43 compounds from ChEMBL document CHEMBL4888484, “Replenishing the malaria drug discovery pipeline: Screening and hit evaluation of the MMV Hit Generation Library 1 (HGL1) against asexual blood stage Plasmodium falciparum ,using a nano luciferase reporter read-out” (2022) can be followed below.

The campaign covered roughly 150,000 compounds. About 540 (0.36%) showed an effect of 50% or more. Some of the results follow.

This test concerns Plasmodium falciparum. Description: Primary screen in NF54 nanoGlo assay, in single point, at 2uM, 72h; a lower Z score goes with more inhibition. It counts as functional, Erythrocyte. The following applies: timepoint 72 hour.
With `Cc1nc(CN2CCN(C)C(=O)[C@@H]2C)n(C)c1C`, the “% Inhibition” value is recorded as -15% and the Z score was determined as 1.74.
For `O=C(c1cc(C(F)(F)F)n[nH]1)N1CC[C@H](c2ccc(F)cc2)[C@@H](O)C1`, in that order: -7% and 0.92.
`CC(C)(C)N(CC(=O)N1CCn2cccc2[C@@H]1c1ccoc1)C(=O)c1ccccc1Cl`: the “% Inhibition” value is -11% and the Z score turned out to be 1.53.
The matching figures for `CN1C(=O)CO[C@H](c2nc(-c3ccco3)no2)[C@H]1c1cccnc1`: -7% and 1.
Regarding `O=C(O)c1ccc2c(c1)n(CCN1CCCCC1)c(=O)n2CCc1ccccc1`, the “% Inhibition” value was 5% and the Z score is on record as -0.74.
On to `CCN(C(=O)Nc1cc(OC)ccc1OC)[C@@H](C)CS(C)(=O)=O`, for which the “% Inhibition” value is on record as -1% and the Z score came out at 0.09.
For `Cc1nn(C(C)(C)C)cc1C(C)NC(=O)N1CCCC(O)C1` (stereo unspecified), in that order: 0% and 0.
For the compound `O=C(NCCN1CC[C@H](N2CCOCC2)C1=O)c1ccoc1`, the “% Inhibition” value is on record as -1% and the Z score is given as 0.16.
The matching figures for `CCCn1cc(C(=O)N2CC[C@H](CC(=O)NC)C2)c(C)n1`: -3% and 0.55.
Consider `CC1(C)[C@H]2CC=C(CCNc3nc(-c4ccncc4)nc4c3CNC4)[C@@H]1C2`, for which the “% Inhibition” value is 0% and the Z score is given as -0.03.
The matching figures for `N#C[C@@H](N)c1cccc(Br)c1`: -2% and 0.23.
Regarding `COc1ccnc(CN2CC3(CCCCC3)CC2=O)c1OC`, the “% Inhibition” value is on record as -6% and the Z score worked out at 0.76.
For `CC[C@@H](C(=O)N(CCO)Cc1nccn1C)n1cccn1`, in that order: 1% and -0.18.
The matching figures for `c1ccc(Nc2ncc(Cc3cccc4ccccc34)s2)nc1`: -8% and 1.11.
For `COc1ccc(C(=O)NC[C@@]2(COc3cccnc3)C[C@@H](O)[C@@H](O)C2)cc1`, in that order: 24% and -2.82.
For the compound `Cc1n[nH]c([C@H]2CCN(Cc3ccccc3C#N)C[C@H]2N(C)C)n1`, the “% Inhibition” value was -5% and the Z score is 0.64.
The matching figures for `Cc1ccc(C2=Nc3ccccc3C(c3ccc(C)cc3)=Nc3ccccc32)cc1`: -5% and 0.5.
For `O=C(NS(=O)(=O)CCCF)c1cnc([C@@H]2CCCO2)s1`, in that order: 0% and -0.04.
For `COC[C@](C)(CNC(=O)c1ccc(Br)o1)OC`, in that order: -15% and 2.94.
As for `CC1CCC(Oc2cc(CNS(=O)(=O)c3cnn(C)c3)ccn2)CC1` (stereo unspecified), the “% Inhibition” value is -6% and the Z score is 0.6.
Regarding `Cc1cc(S(=O)(=O)N2CC(Oc3cc(C)n(C4CC4)c(=O)c3)C2)ccc1F`, the “% Inhibition” value is on record as -1% and the Z score came to 0.13.
For `COC(=O)CCc1cncc(NC(=O)[C@@]2(N)COc3ccccc3C2)c1`, in that order: -10% and 1.09.
For `Cn1ccc(NC(=O)N(CC(C)(C)O)C2CC2)n1`, in that order: -20% and 1.99.
The matching figures for `COc1ncc(CN2CCC(C(=O)O)(n3ccc(C(C)C)n3)CC2)cn1`: -7% and 0.67.
As for `CCc1cc(N2CCC[C@H]2c2noc(C)n2)ncn1`, the “% Inhibition” value is -6% and the Z score was determined as 0.53.
For `CCNC(=O)C[C@H]1COCCN1S(=O)(=O)c1cccc2nsnc12`, in that order: -4% and 0.57.
For `CC(=O)N1CC[C@@]2(CO)CN(Cc3ccc(OC(F)(F)F)cc3)C[C@H]2C1`, in that order: -12% and 1.36.
As to `Cc1ncc(C(=O)N2CCCC[C@@H]2CCc2cccs2)s1`, the “% Inhibition” value is on record as -5% and the Z score worked out at 0.83.
For `CN(CCNC(=O)c1ccncc1F)C(=O)c1ccncc1F`, in that order: -4% and 0.61.
Take `COC[C@@H](C(N)=O)N(C)C(=O)c1cc2c(C)cccn2c1`: the “% Inhibition” value was determined as 4% and the Z score was -0.77.
Take `COc1cc(N2CCC3(CCC(=O)N(CCc4ccccc4)C3)CC2)ncn1`: the “% Inhibition” value is reported as -3% and the Z score was found to be 0.53.
`CCN1CCN(C2(C(=O)N(C)Cc3nc(C)cs3)Cc3ccccc3C2)CC1`: the “% Inhibition” value is recorded as -7% and the Z score was 1.05.
For `O=C(CCc1nnc(C2CCCC2)o1)NCC1CC1c1ccccc1` (stereo unspecified), in that order: 2% and -0.3.
As to `O=C(c1csc2cccc(Cl)c12)N1CCn2c(nnc2C(F)(F)F)C1`, the “% Inhibition” value was -10% and the Z score is 1.35.
For `Cc1n[nH]c2ncc(NC(=O)C3CCOCC3)cc12`, in that order: -6% and 0.64.
In the case of `CCOC[C@H](C)OC(=O)c1cnn(C)c1`, the “% Inhibition” value was 12% and the Z score is reported as -2.15.
The matching figures for `Cc1ccc(F)c(N2CCC(NC(=O)C3(O)CCCC3)CC2)c1`: -11% and 1.26.
For `C[C@H](NC(=O)c1cccc(C(F)(F)F)c1)c1nnc(N)s1`, the “% Inhibition” value was -8% and the Z score was found to be 0.79.
`Cc1ccc([C@@H]2c3[nH]c4ccccc4c3CCN2S(=O)(=O)c2cnn(C(F)F)c2C)cc1`: the “% Inhibition” value is on record as -6% and the Z score was determined as 0.67.
The matching figures for `c1cn2cnnc2c(N2CCC3(CCCCC3)C2)n1`: 10% and -1.18.
The matching figures for `Cc1nc(CN(Cc2cc3c(cc2Cl)OCO3)C(C)C)no1`: -1% and 0.2.
For `O=C(CN1CCN(c2cccc(Cl)c2)C1=O)N1CC[C@H](Oc2ncc(Cl)cn2)C1`, in that order: -7% and 1.08.
For the compound `COC1CC(NS(=O)(=O)c2ccc(Cl)s2)C1(C)C` (stereo unspecified), the “% Inhibition” value is on record as -12% and the Z score is reported as 2.27.
